Source: PubChem BioAssay AID1963576 (National Center for Advancing Translational Sciences (NCATS), 2024)
Among all 46,000 compounds or so, about 60 (0.1%) were called active. Roughly 3% stayed inconclusive and do not appear here. Calls come from the whole dose curve; as a rule, active = well fitted inhibition curve with a large enough effect; inconclusive = small, poorly fitted or top-dose-only effect; inactive = no such curve, though single readings can be large or run the other way. Some of the results follow.

Test: Primary qHTS assay for Inhibitors of ovarian cancer metastasis using an organotypic tumor microenvironment (TME) model.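 For activity change, negative = inhibition: plate controls were DMSO wells for no effect and tomatine positive control wells for full effect.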 Note: nearly all actives have a fitted effect of over 65% in size.
Conditions: SKOV3ip1-GFP adhesion/invasion on 3D omental model, fluorescence; series mostly up to 45.8 µM; activity change, negative = inhibition: at the top concentration
In short: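 A 3D layer of primary human omental fibroblasts, mesothelial cells, fibronectin and collagen I, grown 48 hr, received SKOV3ip1-GFP cells in serum-free medium plus compounds at 0.36-46 umol/L. After 2 hr RT and 16 hr 37 C, fixed adherent GFP cells were counted; normalized to DMSO and tomatine.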

Activity change, negative = inhibition, inactive:
COc1ccc(NC(=O)c2c(-c3ccccc3)c(-c3ccccc3)nn(C)c2=O)cc1OC -8.51%
O=C(Nc1ccc(S(=O)(=O)Nc2ncccn2)cc1)c1cc(=O)c2ccccc2o1 0.555%
Cc1ccc(C(=O)c2oc3ccccc3c2NC(=O)COc2ccc(C(C)C)cc2)cc1 -9.6%
COc1ccc(-c2cn3cccnc3n2)cc1NC(=O)Nc1ccc(Cl)cc1 -23.4%
O=C(CC1C(=O)N(c2ccccc2)C(=O)N1Cc1ccc(F)cc1)Nc1cccc(F)c1 (centres undefined) -5.58%
CCOc1ccc(NC(=O)c2ccc3c(c2)CCN3S(=O)(=O)CC)cc1 -7.12%
CCN(CC)C(=O)Cn1c(=O)cc(C)c2c(C)nn(-c3ccc(C)cc3)c21 4.28%
COc1ccc(-c2cc(-c3ccccc3)nc3c2COc2ccc(F)cc2-3)cc1 2.45%
Cc1ccc(S(=O)(=O)N2CCCc3cc(NS(=O)(=O)c4cc(C)ccc4C)ccc32)cc1 -6.97%
CC(C)c1nn2c(=O)cc(COC(=O)c3ccc(NC(=O)C4CCCCC4)cc3)nc2s1 -0.683%
CCCCN1CCc2nc(Nc3ccc(OC)cc3OC)ncc2C1 4.51%
COc1ccc(NC(=O)c2c(NC(=O)COc3ccccc3)sc3c2CCC(C(C)(C)C)C3)cc1 (centres undefined) 2%
Cc1ccc(CN(Cc2ccco2)C(=O)c2ccc(OCC(C)C)cc2)cc1 219%
Cc1nc2sccn2c(=O)c1S(=O)(=O)Nc1cc(Cl)ccc1O -9.65%
Cc1cccc(NS(=O)(=O)c2ccc3[nH]c4c(c3c2)CCCCCC4)c1 -12.7%
Cc1ccc2c(c1)N(C(=O)N1CCC(C(=O)NCCc3ccc(Cl)cc3)CC1)CC(C)O2 (centres undefined) 0.411%
Cc1ccc(C)c(N2CCN(C(=O)c3cc4c(=O)n(Cc5ccccc5)ccc4nc3C)CC2)c1 -7.38%
CCCCOc1ccc(C2=NC(c3ccncc3)=Nc3ccc(OCC)cc3N2)cc1 3.5%
CCc1ccc(NC(=O)CN2C(=O)C(c3ccc(C)cc3)=NC23CCCCC3)cc1 10.2%
CCc1ccc(CNC(=O)Cn2nc(C)n3c(cc4cc(C)ccc43)c2=O)cc1 -4.75%
Cc1cccc(Cn2cccc2CNS(=O)(=O)c2ccccc2F)c1 6.81%
Cc1ccc(Cn2c(=O)c3ccccc3n3c(-c4cccc(O)c4)nnc23)cc1 15.4%
COc1ccc(NC(=O)CSc2nc3nc(C)c(Cc4ccccc4)c(C)n3n2)cc1OC -8.25%
O=C(C1CCN(S(=O)(=O)c2cccc3nonc23)CC1)N1CCN(c2cccc(Cl)c2)CC1 -1.27%
CC(C)OCCCn1c(SCC(=O)c2ccccc2)nc2c(sc3ccccc32)c1=O 1.09%
Cc1cc(C)n2nc(CNS(=O)(=O)c3ccc(C)c(C)c3)nc2n1 2.41%
O=C(CSc1nnc2ccc3ccccc3n12)Nc1ccccc1Cl 2.28%
O=C(Cc1ccc(F)cc1)NCc1ccc2c(c1)CCN2C(=O)c1ccc(F)cc1 -7.09%
Cc1ccc2nc(COc3ccccc3NC(=O)C(C)(C)C)cc(=O)n2c1 22.9%
O=C(Nc1sc2c(c1C(=O)NCc1cccnc1)CCCC2)c1cc(=O)c2ccccc2o1 20.5%
Cc1ccc(CCNC(=O)c2cc3c(s2)-c2c(C)cccc2OC3)cc1 -20.1%
COc1cccc2c1cc1c(=O)n(CC(=O)NCc3ccc(C)o3)nc(C)n12 -2.5%
COc1cccc(-n2c(SCC(=O)Nc3c(C)cc(C)cc3C)nc3c([nH]c4ccccc43)c2=O)c1 -16.1%
CCn1c(=O)cc(SCC(=O)NCc2ccc(OC)cc2OC)c2ccccc21 -27.5%
Cc1nn(C(=O)c2cccc(Cl)c2)c(C)c1S(=O)(=O)N1CCOCC1 10.1%
COc1ccc(OC)c(NC(=O)CSc2ccc(-c3sc(C)nc3C)nn2)c1 -2.06%
COc1ccc(CCNC(=O)c2ccc3c(c2)N(Cc2ccc(F)cc2)C(=O)CS3)cc1OC 9.28%
O=C(COc1ccccc1-c1nc(-c2ccccc2)no1)Nc1cccc([N+](=O)[O-])c1 1.78%
CCOC(=O)c1c(-c2ccccc2)oc2ccc(N(C(C)=O)S(=O)(=O)c3ccc(CC)cc3)cc12 -24.3%
COc1ccc(CCNC(=O)C(=O)NCC(c2ccco2)S(=O)(=O)c2cccs2)cc1OC (centres undefined) 12%
CCC(=O)N1CCc2cc(S(=O)(=O)NC(CC(C)C)C(=O)NCCc3ccccc3)ccc21 (centres undefined) 19.6%
COc1ccc(C2=Nn3c(nc4sc(C(=O)Nc5cccc(C)c5)c(C)c4c3=O)SC2)cc1 3.01%
COc1ccc(NC(=O)c2ccc3c(c2)c(C)c(C)n3Cc2ccc(F)cc2)c(OC)c1 -6.56%
COc1cccc(CN2C(=O)c3ccccc3Sc3ccc(C(=O)NCCc4ccc(Cl)cc4)cc32)c1 2.52%
COc1ccc(-c2nn3c(-c4ccc(C)cc4)nnc3c3ccccc23)cc1 5.32%
COc1ccc(NC(=O)c2cc3c([nH]c2=O)CC(c2ccccc2)CC3=O)cc1 (centres undefined) -5.24%
COc1ccc(NC(=O)Cn2c(=O)n(-c3ccc(CC(=O)NCC4CCCO4)cc3)c(=O)c3ccccc32)c(OC)c1 (centres undefined) 10.5%
CCCOc1ccc(OC(=O)c2c(-c3ccccc3Cl)noc2C)cc1 -9.45%
Cc1cccc(-c2noc(-c3ccc(NCC4CCCO4)c([N+](=O)[O-])c3)n2)c1 (centres undefined) -1.39%
CCOC(=O)c1c(C)n(-c2ccccc2)c2ccc(OC(=O)c3ccc(OCC)c(OCC)c3)cc12 -7.57%
CN(C(=O)c1ccc2c(c1)N(Cc1ccccc1F)C(=O)c1ccccc1S2)C1CCCCC1 -5.4%
COc1ccccc1N1CCN(c2nc3ccc(C)cc3nc2-n2nc(C)cc2C)CC1 1.62%
COc1nc(-c2ccc3c(c2)OCO3)n(-c2ccc(NC(=O)CSc3ccccc3)cc2)n1 -4.66%
Cc1cc(C)cc(OCc2cc(=O)n3cc(C)sc3n2)c1 -16%
O=C(C1CCN(c2nc3ccccc3[nH]2)CC1)N1CCN(c2ccccc2)CC1 0.759%
O=C(Nc1c(C(=O)N2CCC(N3CCCCC3)CC2)oc2ccccc12)c1c(F)cccc1F -13.1%
Cn1cc(S(=O)(=O)c2ccccc2)c(=O)c2cc(F)c(N3CCN(c4ccc(F)cc4)CC3)cc21 8.86%
CN(C)S(=O)(=O)c1ccc2c(c1)N(CC(=O)N1CCCCC1)CCS2 29.5%
Cc1ccc(-c2nnc(Nc3ccc(Cl)cc3)c3ccccc23)cc1S(=O)(=O)N1CCOCC1 0.875%
COc1cccc(-n2c(SCC(=O)N3CCCCC3)nc3c([nH]c4ccccc43)c2=O)c1 -2.99%
Cc1cccc(N2CCN(C(=O)c3c(C)oc4nc(C)nc(N5CCCC5)c34)CC2C)c1 (centres undefined) -17.3%
CC(=O)Nc1ccc(NC(=O)C(Cc2ccccc2)N2Cc3ccccc3C2=O)cc1 (centres undefined) 1.53%
Cc1ccc(NC(=O)Cn2c(=O)n(CCC(=O)NCCc3ccccc3)c(=O)c3ccccc32)cc1 43.3%
Cc1ccc(Cl)cc1N1CCN(C(=O)c2cn(C)c3ccc(S(=O)(=O)N(C)C4CCCCC4)cc3c2=O)CC1 -0.693%
COc1ccc(CNC(=O)CCc2nc3cccnc3n2Cc2ccccc2)cc1 4.26%
COc1ccc(NC(=O)c2c(N)c(C(=O)c3ccc(C)cc3)n3ccccc23)cc1OC -20.1%
CC1CCC(N2CC(=O)N(C3CCCC3)C(c3ccc(Cl)cc3)C2=O)CC1 (centres undefined) 0.811%
Cc1ccc(C)c(CN2C(=O)c3ccccc3Sc3ccc(C(=O)NCc4cccs4)cc32)c1 2.15%

outcome, inactive:
Cc1cccc(-n2ncc3c(Nc4ccc(C)c(Cl)c4)ncnc32)c1
COc1ccc2[nH]c3c(c2c1)CCN(C(=O)c1cccc(Cl)c1)C3c1ccc(F)cc1 (centres undefined)
Cc1ccc(CSc2ncc(Cl)c(C(=O)NCc3ccccc3)n2)cc1
CCOC(=O)c1cc(-c2ccc(F)cc2)n(CC(=O)NC2CCCCCC2)c1C
CCOc1cccc2c1N[C@@H](c1ccc(C(=O)O)cc1)[C@H]1CC=C[C@@H]21
Cc1ccc(-n2nc(C)c3c(C)c(CCC(=O)NCc4ccccc4Cl)c(C)nc32)cc1C
COc1ccc2sc(N(Cc3cccnc3)C(=O)C3CCCCC3)nc2c1
O=C(Cn1c(=O)n(CC2CCC(C(=O)NCCc3ccccc3)CC2)c(=O)c2ccccc21)Nc1ccccc1 (centres undefined)
CCOc1ccccc1CNC(=O)C1CCN(c2nnc(-n3c(C)ccc3C)s2)CC1
COc1ccc(NC(=O)C(Cc2ccccc2)NS(=O)(=O)c2ccc3c(c2)CCC(=O)N3)c(OC)c1 (centres undefined)
CCN(CC)CCOC(=O)c1ccc(NC(=O)Cn2ncc3c2-c2cc(C)ccc2OC3)cc1
Cc1nn(-c2ccc(F)cc2)c(-n2cccc2)c1C(=O)NCCc1ccc(Cl)cc1
CCOC(=O)N1CCc2c(sc3c2c(=O)n(-c2ccccc2C(F)(F)F)c(=O)n3Cc2ccccc2C)C1
Cc1ccc(NS(=O)(=O)c2ccc(-n3cccn3)cc2)cc1Cl
CCOc1ccc(C2CC(c3c(O)n(C4CCCCC4)c(=O)[nH]c3=O)=Nc3ccccc3S2)cc1 (centres undefined)
COc1cccc(CNC(=O)c2ccc(-c3nc(COc4ccccc4)c(C)o3)cc2)c1
COC(=O)c1cc2oc3ccccc3c2n1CC(=O)Nc1ccc(Cl)cc1F
O=C(COc1ccc(Cl)cc1)Nc1ccc2nc(SCC(=O)N3CCCC3)sc2c1
Cc1cccc(-c2nc(CCNC(=O)Cc3ccccc3)cs2)c1
O=C(c1nc(-c2ccc(Cl)cc2)n2c1CCCCC2)N1CCN(c2ccccc2)CC1
CCc1ccc(OCC(=O)N(Cc2ccco2)Cc2ccco2)cc1
Cc1cccc(NCc2nnc3n2CCCCC3)c1C
COc1ccccc1NC(=O)CCn1nc(-c2ccccc2)c2ccccc2c1=O
Cc1ccc(-n2ncc3c(Nc4cccc(C)c4)ncnc32)cc1
O=C(Cn1cnc(S(=O)(=O)N2CCCC2)c1)Nc1ccccc1
CCOc1ccc(CCNC(=O)C(C)n2nc(C)n3c(cc4occc43)c2=O)cc1OCC (centres undefined)
